Data taken from PubChem BioAssay AID504937 (National Center for Advancing Translational Sciences (NCATS), 2011).
About 20 (0.006%) of roughly 340,000 compounds were called active. The shares of active, inactive and inconclusive entries below differ from those in the screen. The call rests on the fitted dose curve; in most records, active means well fitted inhibition curve with a large enough effect; inconclusive means small, poorly fitted or top-dose-only effect; inactive means no such curve, though single readings can be large or run the other way. Potencies beside an inconclusive call are fits to weak or partial responses and may not hold up.

target: Sphingomyelin phosphodiesterase (Homo sapiens) (UniProt P17405); test: Inhibitors of Secretory Acid Sphingomyelinase (S-ASM): qHTS; conditions: placental ASM, HMU-PC fluorogenic substrate (series up to 57.5 µM), 60 min
Procedure, shortened: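 Steps: dispense placental human ASM, pin compound, wait 10 min at room temperature, add HMU-PC0 substrate at 9 uM final, incubate 60 min at 37 °C, add stop solution raising pH to 10, read fluorescence.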
Potency means the concentration at half of the fitted maximal effect; tags describe the fitted curve by direction and shape.

Chain of UniProt P17405 (P17405 whole entry, looked up): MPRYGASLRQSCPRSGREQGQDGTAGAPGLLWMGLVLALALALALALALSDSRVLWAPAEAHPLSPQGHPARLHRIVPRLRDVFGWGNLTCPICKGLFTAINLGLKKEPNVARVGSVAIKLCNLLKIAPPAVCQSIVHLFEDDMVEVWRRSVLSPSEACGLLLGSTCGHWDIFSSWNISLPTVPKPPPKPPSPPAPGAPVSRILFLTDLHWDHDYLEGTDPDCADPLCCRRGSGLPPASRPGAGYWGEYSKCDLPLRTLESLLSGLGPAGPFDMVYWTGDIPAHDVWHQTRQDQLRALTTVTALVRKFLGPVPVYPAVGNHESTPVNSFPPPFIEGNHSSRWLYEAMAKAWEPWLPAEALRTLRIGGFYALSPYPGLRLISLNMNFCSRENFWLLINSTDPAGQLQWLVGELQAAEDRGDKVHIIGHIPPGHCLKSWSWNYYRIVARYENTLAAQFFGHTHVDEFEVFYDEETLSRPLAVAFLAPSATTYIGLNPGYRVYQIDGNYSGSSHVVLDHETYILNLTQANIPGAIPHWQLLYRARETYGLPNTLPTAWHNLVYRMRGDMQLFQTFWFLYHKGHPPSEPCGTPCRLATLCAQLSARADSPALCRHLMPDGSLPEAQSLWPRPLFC

SMILES | Potency
c1ccc(-c2ccc(C3=Nn4c(nnc4-c4cccs4)SC3)cc2)cc1 | inconclusive: 89.1 µM [inhibitor, single point]
COC(=O)[C@@]12CCCCN1[C@H](c1ccc(-c3ccc(C(C)=O)cc3)cc1)[C@@H]1C(=O)N(C)C(=O)[C@@H]12 | inconclusive: 178 µM [inhibitor, partial curve, poor fit]
O=C1Nc2ccc(Br)cc2C12NNc1ccccc1O2 (stereo unspecified) | inconclusive: 79.4 µM [inhibitor, partial curve, poor fit]
CCOC(=O)c1c(C)[nH]c(C)c1S(=O)(=O)NCC1CCN(Cc2cccc(Cl)c2)CC1 | inactive
CCc1ccc(Nc2n[n+](-c3ccccc3)c(-c3ccc(N(CC)CC)cc3)s2)cc1 | inconclusive: 79.4 µM [inhibitor, partial curve]
O=[N+]([O-])c1ccc(-c2nc(Nc3cccc(O)c3)c3ccccc3n2)cc1 | inconclusive: 112 µM [inhibitor, partial curve, poor fit]
NC(=O)c1sc2nc3c(c(-c4ccco4)c2c1N)CCC3 | inconclusive: 708 µM [inhibitor, partial curve, poor fit]
C=CCOC(=O)C1=C(C)NC(=O)NC1c1cn(-c2ccccc2)nc1-c1cccs1 (stereo unspecified) | inactive
Cn1c(N)c(C(=O)COC(=O)c2ccc(-c3ccccc3)cc2)c(=O)n(C)c1=O | inconclusive: 126 µM [inhibitor, partial curve, poor fit]
O=C(Nc1ccc(Cl)c(Cl)c1)C1CC(=O)N(c2ccc(Br)cc2)C1 (stereo unspecified) | inconclusive: 70.8 µM [inhibitor, single point]
Cc1ccc(NS(=O)(=O)c2c(C(=O)N3CCCCCC3)c(C)n(C)c2C)cc1C | inactive
COc1ccc(CNC(=O)C[C@H]2C[C@H](C(=O)N3CCCCC3)[C@@]3(CCc4ccccc4)c4[nH]c5cc(-c6ccco6)ccc5c4CCN3C2=O)cc1OC | inconclusive: 7.94 µM [inhibitor, partial curve, poor fit]
CCn1c(/N=C/c2ccccc2NS(=O)(=O)c2ccc(C)cc2)nc2ccccc21 | inactive
c1ccc(NN=C2c3ccccc3-c3ccccc32)cc1 | inconclusive: 89.1 µM [inhibitor, single point]
O=C(C1=C[C@H](c2ccc(Br)cc2)C[C@H](OCc2ccc(CO)cc2)O1)N1CCN(Cc2ccc3c(c2)OCO3)CC1 | inconclusive: 398 µM [inhibitor, partial curve, poor fit]
CCc1ccc(NC(=O)C2=CC(c3ccc(OC)c(OC)c3)=NS(=O)(=O)N2C)cc1 | inconclusive: 126 µM [inhibitor, partial curve, poor fit]
Cc1cc(N=NC(=O)c2ccccc2O)c2ccccc2c1O | inconclusive: 1000 µM [inhibitor, partial curve, poor fit]
O=C1/C(=C/c2ccc(O)cc2)SC(=S)N1CC1CCCO1 (stereo unspecified) | inconclusive: 112 µM [inhibitor, partial curve, poor fit]
CCOC(=O)c1cc(-c2csc(Nc3ccccc3Cl)n2)on1 | inconclusive: 355 µM [inhibitor, partial curve, poor fit]
O=C(NCCC1CCCCN1S(=O)(=O)c1ccccc1)C(=O)Nc1ccccc1 (stereo unspecified) | inactive
Cc1cc(-c2ccccc2)nc(Oc2ccc(C(C)(C)C)cc2)c1S(C)(=O)=O | inconclusive: 141 µM [inhibitor, partial curve]

SMILES | Potency
COc1ccc(N2CC(C(=O)NCc3ccco3)CC2=O)cc1 (stereo unspecified) | inactive
COc1cccc(-c2nc(N3CCCCC3C)c3ccccc3n2)c1O (stereo unspecified) | inconclusive: 126 µM [inhibitor, partial curve, poor fit]
Cc1ccc(C2(c3ccc(C)cc3)CC2C(=O)Nc2ccc([N+](=O)[O-])cc2O)cc1 (stereo unspecified) | inconclusive: 89.1 µM [inhibitor, single point]
C=CCNC(=S)Nc1sc2c(c1C(=O)OCC)CCN(C(=O)OCC)C2 | inconclusive: 89.1 µM [inhibitor, partial curve]
O=C(Cn1cnc2ccccc2c1=O)c1ccc(OC(F)F)cc1 | inactive
N#C/C(=N\Nc1ccc(Cl)cc1)C(=O)c1ccccc1 | inconclusive: 79.4 µM [inhibitor, single point]
Cc1coc2cc3oc(=O)c(CCC(=O)N4CCC(C(=O)O)(c5ccccc5)CC4)c(C)c3cc12 | inactive
C=CCOc1ccc(/C=C2\SC(=S)N(NS(=O)(=O)c3ccc(C)cc3)C2=O)cc1 | inconclusive: 112 µM [inhibitor, partial curve]
COc1ccc(-c2sc3ccccc3c2-c2ccc(OCCN3CCOCC3)cc2)cc1 | inconclusive: 79.4 µM [inhibitor, partial curve, poor fit]
CCCn1cnc2c1c(=O)n(CCCCC(C)=O)c(=O)n2C | inactive
CCOc1ccc(N2CC(C(=O)Nc3ccc(S(=O)(=O)N4CCOCC4)cc3)CC2=O)cc1 (stereo unspecified) | inconclusive: 112 µM [inhibitor, partial curve, poor fit]
Cc1ccc(-c2cc(C(=O)N3N=C(C(F)F)CC3(O)C(F)F)c3ccccc3n2)cc1C (stereo unspecified) | inactive
CCCN(CCC)Cc1c(C(=O)N/N=C/C(C)=C\c2ccco2)nnn1-c1nonc1N | inactive
CCN(c1ccccc1)S(=O)(=O)c1ccc(OC)c(NC(=O)C2CC(=O)N(Cc3ccccc3)C2)c1 (stereo unspecified) | inactive
O=C1/C(=C/c2cccs2)SC(=S)N1N1CCOCC1 | inactive
CC(C)C[C@H](NC(=O)c1nc[nH]c1C(=O)NCc1ccccc1)C(=O)OC(C)(C)C | inactive
O=C(NCC(=O)N1CCCC1)c1ccc(Br)o1 | inactive
Cc1ccc(S(=O)(=O)N2CCN(c3cc4c(cc3[N+](=O)[O-])n(C)c(=O)n4C)CC2)cc1 | inconclusive: 200 µM [inhibitor, partial curve, poor fit]
Cc1cc(Nc2cccc(F)c2)nc(-c2ccccc2O)n1 | inconclusive: 70.8 µM [inhibitor, single point]
C[C@H](CO)N1C[C@H](C)[C@@H](CN(C)Cc2ccc(-c3ccccc3)cc2)Oc2c(NC(=O)c3ccncc3)cccc2C1=O | inactive
